Consider 67 sequences from the supplement of paper PMC10126150.

Values marked as one replicate rest on one cluster of the flow cell; about a third of the high ones do not repeat.
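Further: ATP exposure 15 min at 22 °C before imaging.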

This series concerns ATP. Kind of series: switch fluorescence ratio, 500 uM ATP over buffer (Cy3 cluster intensity, sum of 5 cycles each) (fold (ratio)); higher = stronger signal-on switching upon ATP binding; sequences stand for … in TCGTCGGCAGCGTCAGATGTGTATAAGAGACAGTTTTTTTTTTTTTTTTTTTTTTTTT…TC. The settings on record: aptamer strand: ATP DNA aptamer (quencher-CACCTGGGGGAGTATTGCGGAGGAAGG + anchor), 100 nM annealed; ATP concentration: 500 uM; one replicate. In a few lines:
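Per cluster, summed Cy3 intensity from the target cycles was divided by that from the buffer cycles to give the fluorescence ratio, then averaged per switch-domain sequence. Clusters outside 100-1000 RFU were excluded. The Cy3-labelled switching-strand clusters, on a modified Illumina MiSeq flow-cell, were annealed to 100 nM quencher-labelled ATP aptamer and imaged in selection buffer, then after 15 min with 500 uM ATP at 22 °C, for five cycles with NaOH stripping and re-annealing between them.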
With TCCTGCAAA, the switch fluorescence ratio is 1.95.

Regarding ATATATTGT, the switch fluorescence ratio was found to be 1.02.

For the sequence TACTCAGTTA, the switch fluorescence ratio came out at 1.05.

As to AGTACGTTCG, the switch fluorescence ratio amounted to 1.04.

Turning to CACGGCATTA, the switch fluorescence ratio was found to be 1.28.

Take CAGTCTGGGC: the switch fluorescence ratio turned out to be 1.

GTAAGGGTTT: the switch fluorescence ratio amounted to 0.993.

Turning to CAAAAGACAT, the switch fluorescence ratio came out at 1.

For the sequence GGGGCCTCGT, the switch fluorescence ratio was determined as 1.

As to GTAAATCCGG, the switch fluorescence ratio was found to be 0.973.

On to GAGGGTCGGC, for which the switch fluorescence ratio was 1.01.

Regarding AATGGGTCGG, the switch fluorescence ratio is 0.98.

CCTGTTTCGA: the switch fluorescence ratio was 1.02.

For the sequence TTTGGTCGTT, the switch fluorescence ratio was 0.966.

With CGGGTAAATC, the switch fluorescence ratio worked out at 0.993.

On to TTTTGGTCGT, for which the switch fluorescence ratio is 1.01.

In the case of CGTTAATCTC, the switch fluorescence ratio was 1.08.

For TCAGGCTTTC, the switch fluorescence ratio is 1.05.

Turning to AATAATATGG, the switch fluorescence ratio stood at 1.08.

As for TAGCTCAAGT, the switch fluorescence ratio is 0.982.

Regarding GCCTATTCTA, the switch fluorescence ratio came out at 0.987.

TCATAGCTTG: the switch fluorescence ratio was found to be 0.99.

GATGTGGCTA: the switch fluorescence ratio is 0.996.

Take AGAATCATGT: the switch fluorescence ratio amounted to 0.994.

For the sequence TTACTGACTG, the switch fluorescence ratio came out at 1.18.

As for GAACGGCAGA, the switch fluorescence ratio stood at 0.968.

For TCATCCAGTT, the switch fluorescence ratio worked out at 1.04.

ATGCCTGAA: the switch fluorescence ratio worked out at 1.21.

Take AGTCTTGAT: the switch fluorescence ratio stood at 1.01.

On to GTATTGTCAT, for which the switch fluorescence ratio was found to be 0.979.

Consider ACTCTGCTGA, for which the switch fluorescence ratio is 2.55.

Turning to GTTAACCGGC, the switch fluorescence ratio turned out to be 1.

In the case of CGTAACGGAT, the switch fluorescence ratio came to 0.974.

Turning to GAAGACTCTG, the switch fluorescence ratio was found to be 1.01.

GTGCGAGGAC: the switch fluorescence ratio is 0.994.

TCCGCCTGTT: the switch fluorescence ratio was determined as 1.12.

As to AGGTGTCCAG, the switch fluorescence ratio was 1.03.

On to TCTTACA, for which the switch fluorescence ratio was determined as 1.04.

On to CGTCTTAGG, for which the switch fluorescence ratio was 0.965.

For ACGAGGGAGT, the switch fluorescence ratio worked out at 1.03.

Take CATCTTAGGC: the switch fluorescence ratio is 1.01.

Take CTCTGGTATT: the switch fluorescence ratio came to 1.05.

GTGTCTTTCA: the switch fluorescence ratio amounted to 1.02.

Regarding TCAAGGAACC, the switch fluorescence ratio came to 1.04.

As for GGTTTCTGAC, the switch fluorescence ratio is 1.02.

For the sequence TAAATGGTAT, the switch fluorescence ratio amounted to 0.947.

On to ACCCGATTTT, for which the switch fluorescence ratio came out at 0.991.

Take AAGGTCGGAT: the switch fluorescence ratio turned out to be 0.99.

For the sequence CATCTCAGA, the switch fluorescence ratio turned out to be 1.07.

As to GTTTCAAATA, the switch fluorescence ratio came to 0.978.

Regarding GTGATTGGCC, the switch fluorescence ratio came out at 0.997.

ATGGGCCTCA: the switch fluorescence ratio was determined as 0.978.

On to CATGCAGAAA, for which the switch fluorescence ratio came out at 1.01.

As for CAGGCTTAA, the switch fluorescence ratio was 1.01.

Turning to AGAACGACAC, the switch fluorescence ratio was found to be 1.92.

As for ATGGTTGGCG, the switch fluorescence ratio was determined as 0.955.

On to GCTCAAAATG, for which the switch fluorescence ratio came to 1.05.

For the sequence TTTTGAAGGC, the switch fluorescence ratio amounted to 1.04.

With CAATAGTGC, the switch fluorescence ratio came out at 1.02.

With TAATGTATGC, the switch fluorescence ratio was found to be 1.07.

With TAGAGGTCTA, the switch fluorescence ratio came to 1.

AGTGATGTCC: the switch fluorescence ratio was determined as 0.981.

Take GGACTTACTG: the switch fluorescence ratio stood at 1.02.

AGGGCGTATC: the switch fluorescence ratio stood at 1.08.

For the sequence GACTTACTGT, the switch fluorescence ratio was 1.12.

Regarding CTAAGCTCGA, the switch fluorescence ratio was found to be 1.05.

In the case of GGTCGAATGC, the switch fluorescence ratio amounted to 1.01.
